Reference: the supplement of paper PMC10126150
Values marked as one replicate rest on one cluster of the flow cell; about a third of the high ones do not repeat.

Test system: ATP
Assay: switch fluorescence ratio, 500 uM ATP over buffer (Cy3 cluster intensity, sum of 5 cycles each) (fold (ratio)); higher = stronger signal-on switching upon ATP binding; sequences stand for … in TCGTCGGCAGCGTCAGATGTGTATAAGAGACAGTTTTTTTTTTTTTTTTTTTTTTTTT…TC
Conditions: aptamer strand: ATP DNA aptamer (quencher-CACCTGGGGGAGTATTGCGGAGGAAGG + anchor), 100 nM annealed; ATP concentration: 500 uM; one replicate
Method in brief: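 The quencher-labelled ATP aptamer, at 100 nM, was annealed to Cy3-labelled switching-strand clusters on a modified Illumina MiSeq flow-cell. The clusters were imaged in selection buffer, then after 15 min with 500 uM ATP at 22 °C, and this buffer/ATP cycle ran five times with NaOH stripping and re-annealing between runs. Per-cluster fluorescence ratios, summed target-cycle over summed buffer-cycle Cy3 intensity, were averaged per switch-domain sequence. Clusters outside 100-1000 RFU were excluded.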
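Further: ATP exposure 15 min at 22 °C before imaging.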

Row | Sequence | switch fluorescence ratio
1 | AAGATGATCG | 1.03
2 | GACGGCTAGG | 0.975
3 | ATCTCATTGA | 0.926
4 | GATCTCTAAA | 0.962
5 | CCGCAGTAGG | 3.62
6 | ATAGGATGGT | 1
7 | CTCTCGAGGA | 1.02
8 | TTCGAGGCCC | 1
9 | ACGACAACGG | 1.16
10 | GAAGACTATC | 1.05
11 | AGAGAGTAGC | 0.989
12 | CTCTAAAGAT | 1.11
13 | GGTCCTTGCG | 1.01
14 | GGCGAGCAAT | 1.91
15 | GACATTTG | 0.999
16 | TTTACTGTAT | 1.2
17 | TCCAGCTGGG | 1.07
18 | CGCAGATATG | 1.04
19 | GCGATTTTCG | 0.968
20 | ACGGGCGGTA | 0.986
21 | TGCCTCAACG | 1.06
22 | TCTCCATGCC | 1.18
23 | TTGATGAGAT | 1.06

Row | Sequence | switch fluorescence ratio
24 | TCGGACGCCA | 1.5
25 | GGTGGAGGCG | 1.05
26 | CGCATTTGTC | 1.65
27 | GGGGACCGCC | 1.07
28 | GGTAATGGTT | 0.982
29 | CTATACTCCT | 1.73
30 | TGAGGGTACT | 1.01
31 | AGGGTAAGTT | 0.972
32 | GTGGCCATAC | 1.28
33 | TGCCCCGATT | 1.07
34 | TAAGTTTGAT | 0.976
35 | CGGAGAACGG | 1.07
36 | ACTACATGAG | 1.06
37 | TACACGAGGG | 0.948
38 | ATAGCATCCG | 1.07
39 | GTTCTAGTA | 0.976
40 | TGAATCTGAC | 1.17
41 | TTGTGATGTT | 1.03
42 | TCGGGTTT | 1.02
43 | GATTGCGGGT | 1.03
44 | TTTCTCGGTT | 0.94
45 | ACGAACGTTT | 1.07
46 | GTCGCGTAGC | 0.995

Row | Sequence | switch fluorescence ratio
47 | GGTTCTGCGG | 0.986
48 | ACGTCTGGGC | 1.03
49 | GCCGGCGATC | 1.01
50 | GCGAATTCGC | 1.01
51 | TTTCCGGC | 1.07
52 | GCTCTATTG | 0.968
53 | GGTGCGAGGC | 1.05
54 | ATATTATATT | 0.987
55 | AATGTCTTTC | 1.06
56 | TGATTGGG | 0.975
57 | GTCTTATAAG | 0.982
58 | GATGGTTTTG | 0.988
59 | CCCGGGGTCA | 0.966
60 | TGATAGAGGT | 0.989
61 | CAAGCGGGT | 0.991
62 | CTTAATAACG | 1.03
63 | ATTTTCGTAG | 0.941
64 | GTAGGACTGG | 0.989
65 | GGAGACATAG | 1.11
66 | GGGTGATCTT | 1.05
67 | CGTAGTCGT | 1.02
68 | TGCATGCTGT | 0.983
69 | CCGGGAGGCC | 1.09

Row | Sequence | switch fluorescence ratio
70 | GGTTTGCATA | 0.969
71 | TAGTATTTTG | 0.987
72 | AGGCACGGTG | 0.976
73 | GGGACCGCTG | 0.997
74 | GGCTTGTTGG | 0.995
75 | TGCATTTCCT | 1.03
76 | ATTACCAAAA | 1.02
77 | AAGGCCGAAA | 1.06
78 | ATCATCATCA | 1.03
79 | GTATTGGCAG | 1.02
80 | ATCGGAAATG | 0.952
81 | AAGTCCGGGT | 0.984
82 | CCAGGGGACG | 1.13
83 | CGGGACGTTA | 0.941
84 | CATATATAGC | 0.981
85 | GGAGACACGC | 1.07
86 | AGTGGAACTA | 1.01
87 | GCGCTTCGTG | 0.998
88 | GTTCACTCAA | 0.959
89 | TCTGTCGAGC | 0.942
90 | ACTGTGTAAT | 1.02
91 | AAATAATACG | 1.02
92 | AACAATCCTG | 1.01

Row | Sequence | switch fluorescence ratio
93 | TTTTAAGGT | 0.947
94 | CGCTCCTCAG | 1.42
95 | TTTCCATA | 0.998
96 | ATCCTACCTA | 1.11
97 | TGCGTGTCGT | 1.02
98 | ATTTGTTGCC | 0.982
99 | TGGTACCGTA | 0.919
100 | GGCGCCATGT | 0.992
101 | TACTTGCAGA | 1.03
102 | CAGTATACGT | 1.03
103 | ACCCCCTTCC | 2.96
104 | GCGACTGTGC | 1.03
105 | AGGACGCTCC | 1.07
106 | TGTATCATGC | 1
107 | AATATTTAAG | 0.985
108 | CTACACACGC | 1.5
109 | AGATAAGGCT | 0.985
110 | CGGCGAAAGA | 1.03
111 | TTAACGGACG | 1.07
112 | TTAAGGGGTC | 1.06
113 | CGCCTTGAAC | 1.08
114 | GCAAGTGTCC | 1.22
115 | CATGGAAATC | 1.02

Row | Sequence | switch fluorescence ratio
116 | TCGATGGGCC | 1.01
117 | GATTAAGCTT | 1.02
118 | AAATGGGCA | 1.03
119 | GATTTTTTG | 0.996
120 | GCCCGTGGGG | 0.992
121 | ATATAGGGAG | 1.02
122 | CAGACTTGTC | 0.987
123 | TCATAGGGTT | 1.11
124 | CGGTTGAGCA | 1.05
125 | TGCAGTAAGT | 1.03
126 | AAAGAACTGG | 0.988
127 | AAAGCTTTGC | 0.948
128 | TAAGTGGGAC | 0.995
129 | TCTGTATCG | 0.988
130 | GTGGCAACTG | 1.21
131 | CATATTGGCC | 0.979
132 | GATGCCATTT | 1.04
133 | GTATTCTCAC | 1.02
134 | ATAGGTTAT | 0.977
135 | TTCCACTGAG | 1.03
136 | ATAACATATC | 1.04
137 | AGTCGTACGC | 1
138 | CACTGAACGG | 2.06

Row | Sequence | switch fluorescence ratio
139 | GCCGTCCTTG | 0.977
140 | CGTGCGGAAC | 1.24
141 | AGCTCCTATC | 0.969
142 | GCTATGGGGG | 1.02
143 | AAAGGTCTGT | 0.992
144 | AGGCAAACGA | 1.19
145 | ATCCCCGTTT | 1.01
146 | CCCGTGCTAA | 1.06
147 | CTTAAATCCA | 0.977
148 | CAATGAAGAG | 1.02
149 | CGCGTTGTGT | 0.969
150 | TCTATAATAA | 1.05
151 | CAGGGATAGC | 1.06
152 | GGGGTCC | 0.983
153 | TCACGTTGGC | 0.964
154 | CTAGGGCATT | 0.985
155 | CCTTGGTGGT | 1
156 | CTGTTAAAAG | 0.992
157 | TTACGGTTGT | 1.03
158 | TTAGGCTTTA | 1.09
